# Source: the BET-seq Pho4 binding data (Le et al. 2018)
# Some of the results follow. Values were computed here from the reads of four pooled replicates and scatter widely.
# Molecular target: T1, Pho4 (S. cerevisiae) (UniProt P07270)
# T1 sequence: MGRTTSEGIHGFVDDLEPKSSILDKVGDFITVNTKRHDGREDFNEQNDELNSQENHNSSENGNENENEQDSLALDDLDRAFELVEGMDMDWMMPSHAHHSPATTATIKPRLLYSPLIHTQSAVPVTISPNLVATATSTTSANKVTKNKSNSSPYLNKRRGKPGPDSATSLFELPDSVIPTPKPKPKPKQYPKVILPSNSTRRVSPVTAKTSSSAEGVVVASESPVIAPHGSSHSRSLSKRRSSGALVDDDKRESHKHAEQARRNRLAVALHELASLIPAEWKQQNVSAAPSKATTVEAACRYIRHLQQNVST
# Assay: relative binding free energy (BET-seq); higher = weaker binding
# Conditions: reference: library average
row,Sequence,relative binding free energy [kcal/mol]
1,GGGTGCACGTGTCAGA,0.04
2,GTTTTCACGTGGGTGG,0.3
3,CTAGGCACGTGTGGTC,-0.1
4,TGTATCACGTGCATTG,0.07
5,TTCGGCACGTGCAGTT,0.07
6,GTGGGCACGTGTAGGT,-0.03
7,TATGTCACGTGGTACT,-0.06
8,TCTTTCACGTGGTGCA,0.28
9,TGAGTCACGTGGCAAT,0.12
10,AGTGTCACGTGTAATT,0.1
11,GTCGCCACGTGGTGTA,-0.04
12,GGTCCCACGTGGATGT,0.02
13,TATGACACGTGTTTAT,0.03
14,TCTTTCACGTGAGGGG,0.41
15,ATTTTCACGTGGGCGC,0.18
16,GATATCACGTGTGATT,0.27
17,CGAGTCACGTGTAGGG,0.01
18,GTTGTCACGTGGTTAT,0.14
19,TTCTGCACGTGTTCAT,0
20,TTTTACACGTGTCTTT,0.12
21,CATGACACGTGGGGTG,-0.19
22,ATCGGCACGTGGGTAG,-0.2
23,ACGGGCACGTGAGGAT,0.21
24,TTTTTCACGTGGCTAA,0.3
25,TGAGACACGTGACGGG,0.14

row,Sequence,relative binding free energy [kcal/mol]
1,TTTGTCACGTGGGAAG,0.02
2,TTAGTCACGTGTTCTG,0.14
3,TGGATCACGTGTCGAT,0.12
4,ATGAACACGTGTACGG,0.17
5,GTCAGCACGTGGTTGG,0.03
6,GATAGCACGTGCTGGT,-0.11
7,AATTTCACGTGGAGCA,0.35
8,TTAATCACGTGTTGAT,0.15
9,TATTCCACGTGTGTAG,0.05
10,GTGAGCACGTGGTAAT,-0.17
11,GATATCACGTGGGGTA,0.04
12,TTGTTCACGTGGGGTA,0.14
13,ATGTTCACGTGCGGGC,0.13
14,GTTTTCACGTGTCTGG,0.42
15,TAGTGCACGTGCTCGT,-0.09
16,TAACGCACGTGTTGGG,-0.12
17,TGACGCACGTGGGGGG,-0.17
18,GGTACCACGTGTTGTT,0
19,GTGTTCACGTGATAGT,0.25
20,GCTTACACGTGGGAGT,0.15
21,ACTTGCACGTGAGAGT,0.37
22,ATTGGCACGTGTGGGA,-0.03
23,GTTTTCACGTGCTGTC,0.27
24,GTAGTCACGTGCTTTT,0.13
25,ATCTGCACGTGCTGGG,-0.01

row,Sequence,relative binding free energy [kcal/mol]
1,TGTGGCACGTGCCAGT,-0.08
2,TATTGCACGTGTAGCA,0.14
3,AACGTCACGTGGTGGC,0.11
4,GGTGGCACGTGTGGCA,0.04
5,TGGTACACGTGATATT,-0.01
6,TGTTTCACGTGTGAAA,0.29
7,GGGTTCACGTGGTTTG,0.37
8,ATGTACACGTGTGTAT,0.11
9,TTTGGCACGTGCCGAG,-0.22
10,TGTGCCACGTGTTGAC,0.06
11,AGATTCACGTGTCTGT,0.24
12,TGATTCACGTGGAATT,0.34
13,TTCTTCACGTGAGTTA,0.35
14,CAGCGCACGTGTAGGG,-0.15
15,GGTTGCACGTGGGCAT,-0.07
16,GGCATCACGTGCTTGT,0.28
17,TGAGTCACGTGTTTTC,0.12
18,CTGAACACGTGGGGTA,-0.05
19,CTTTACACGTGTGAGA,0.17
20,TTTAACACGTGAGTTA,0.15
21,GGATGCACGTGTGGCG,0.11
22,GTGTTCACGTGGCCTT,0.21
23,CTGGTCACGTGAGTGC,0.12
24,TGAAGCACGTGGAGGA,-0.01
25,TGTTTCACGTGGAACA,0.24

row,Sequence,relative binding free energy [kcal/mol]
1,TTTAGCACGTGTGTGT,0
2,AGTTTCACGTGAAGCT,0.31
3,ATTGGCACGTGGGACT,-0.12
4,GATTACACGTGTGGAT,0.31
5,AGTGGCACGTGGAAAT,0.05
6,TGCTGCACGTGAGTCT,0.35
7,AATTGCACGTGTGTTT,0.08
8,TTTAGCACGTGTCATG,-0.09
9,TAGTACACGTGTCTTA,0.13
10,TTGATCACGTGTAGCA,0.23
11,GTATACACGTGGAGGT,0.03
12,ATATCCACGTGGATGT,0.01
13,AATTGCACGTGACGAG,0.21
14,TGGGTCACGTGATCTT,0.31
15,TCAGGCACGTGGAGTG,-0.1
16,AAAGTCACGTGCTATT,0.14
17,TGTAGCACGTGGTTAA,-0.08
18,ATGTACACGTGTGCTG,-0.03
19,GTGAGCACGTGGCAGT,-0.2
20,GTTTACACGTGTAAGT,0.16
21,TTTAACACGTGATAGT,0.17
22,TATTACACGTGTTGAG,0.06
23,TGGGTCACGTGTCATG,0.1
24,GTAGACACGTGGTATG,-0.09
25,AGTCTCACGTGTTATG,0.14

row,Sequence,relative binding free energy [kcal/mol]
1,AGGGGCACGTGAGGGA,0.15
2,TGATTCACGTGCGCTT,0.26
3,TCGTGCACGTGGTATG,-0.02
4,TTTAACACGTGTTGTT,0.04
5,GCTGACACGTGTGGGT,0.16
6,TGGCGCACGTGGGATT,-0.11
7,AAAGGCACGTGGTAAT,-0.08
8,ATGGCCACGTGATGGT,0.09
9,ATGGGCACGTGTTGAG,-0.05
10,GGTTTCACGTGCGAAG,0.38
11,GGGCTCACGTGGGATT,0.27
12,TACTGCACGTGGTATT,-0.14
13,GTTATCACGTGGCGGA,0.15
14,GGTGACACGTGGGATC,0.03
15,ATCTTCACGTGTTATT,0.08
16,AGGAGCACGTGACAGT,0.1
17,ATGATCACGTGGAATG,0.19
18,TAGGGCACGTGACTGT,-0.03
19,ATGTGCACGTGGCTGG,-0.13
20,CAGGCCACGTGGTGTT,-0.06
21,CATAGCACGTGTGTGT,-0.1
22,GAAGTCACGTGGGGAG,0.06
23,GGTGTCACGTGACGAT,0.19
24,CGGTACACGTGGTGAA,0.05
25,TAAGTCACGTGTCGGA,0.1

row,Sequence,relative binding free energy [kcal/mol]
1,GTGTGCACGTGTAGTA,0.03
2,TGAAACACGTGTTATT,0.18
3,TTGTTCACGTGAGATT,0.45
4,AATATCACGTGATGAT,0.27
5,TTGTTCACGTGAGTGT,0.39
6,GCTAGCACGTGGTGAG,-0.08
7,TGTGACACGTGTGGTA,-0.04
8,TTTCACACGTGATATA,0.17
9,GTGTGCACGTGTTCTT,0.11
10,GATGACACGTGTTGTG,-0.06
11,GAGGCCACGTGGTTGG,0.05
12,CAGTGCACGTGGATTT,0.21
13,AGGAGCACGTGTGCGT,-0.27
14,TTGGTCACGTGTAGAG,0.11
15,CATTTCACGTGAGGAG,0.45
16,GGGGTCACGTGGGTAA,0.1
17,AGAAACACGTGTGGGA,0.01
18,TTACGCACGTGCGGGG,-0.08
19,TGAGTCACGTGAGTCG,0.34
20,ATTCGCACGTGGTTTG,-0.13
21,ATGTGCACGTGAGTAA,0.15
